Here are results for 56 compounds from paper PMC4336329 (PLoS ONE, 2015).

Out of some 310,000 compounds screened, about 2,200 (0.71%) showed an effect of 50% or more. Effects have a minus sign here. The list shows a part of the results.

The target of this assay is human ether-à-go-go-related gene (hERG) potassium channel (human, UniProt Q12809). In words: primary screen, population patch clamp on CHO cells stably expressing hERG.
human ether-à-go-go-related gene (hERG) potassium channel, sequence (Q12809 whole entry, looked up): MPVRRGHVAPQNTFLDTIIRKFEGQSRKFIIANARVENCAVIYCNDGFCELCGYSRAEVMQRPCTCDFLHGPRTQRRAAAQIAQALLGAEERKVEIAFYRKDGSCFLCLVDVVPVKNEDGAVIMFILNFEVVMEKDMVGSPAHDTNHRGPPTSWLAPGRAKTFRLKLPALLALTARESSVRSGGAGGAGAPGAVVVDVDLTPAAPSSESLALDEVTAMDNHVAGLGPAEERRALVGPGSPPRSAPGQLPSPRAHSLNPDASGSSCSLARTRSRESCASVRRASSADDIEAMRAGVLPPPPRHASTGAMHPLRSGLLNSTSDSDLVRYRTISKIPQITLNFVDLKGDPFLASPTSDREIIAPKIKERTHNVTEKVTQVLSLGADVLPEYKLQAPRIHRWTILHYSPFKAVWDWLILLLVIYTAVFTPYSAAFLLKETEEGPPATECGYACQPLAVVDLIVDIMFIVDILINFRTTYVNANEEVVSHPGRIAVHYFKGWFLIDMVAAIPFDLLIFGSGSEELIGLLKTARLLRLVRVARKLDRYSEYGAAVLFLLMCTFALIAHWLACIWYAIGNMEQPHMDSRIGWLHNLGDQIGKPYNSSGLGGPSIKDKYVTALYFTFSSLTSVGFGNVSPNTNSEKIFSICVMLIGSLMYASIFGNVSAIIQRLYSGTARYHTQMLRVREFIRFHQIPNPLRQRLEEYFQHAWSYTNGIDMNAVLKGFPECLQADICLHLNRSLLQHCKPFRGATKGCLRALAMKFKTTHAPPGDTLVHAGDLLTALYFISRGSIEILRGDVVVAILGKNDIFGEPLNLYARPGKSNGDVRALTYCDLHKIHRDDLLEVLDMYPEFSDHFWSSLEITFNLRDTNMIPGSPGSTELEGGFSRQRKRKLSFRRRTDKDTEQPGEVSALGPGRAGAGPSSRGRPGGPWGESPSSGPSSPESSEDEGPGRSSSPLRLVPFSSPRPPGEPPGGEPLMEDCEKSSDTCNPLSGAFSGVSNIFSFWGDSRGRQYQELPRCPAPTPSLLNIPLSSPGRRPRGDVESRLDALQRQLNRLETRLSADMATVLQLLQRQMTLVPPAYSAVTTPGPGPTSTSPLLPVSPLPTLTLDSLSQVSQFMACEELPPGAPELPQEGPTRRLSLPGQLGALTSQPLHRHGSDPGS
Take `Cc1ccccc1C(=O)NC1CCN(C(=O)Nc2ccc(F)cc2)CC1`: the “hERG current change (%, negative = inhibition) at 1uM” value is 5.39%.
`COc1ccc(C(=O)N(Cc2cccs2)C2CCS(=O)(=O)C2)cc1` (centres unmarked): the “hERG current change (%, negative = inhibition) at 1uM” value came to 15.6%.
With `O=C(OCC(=O)N1CCN(c2ccccc2)CC1)c1ccc(O)cc1O`, the “hERG current change (%, negative = inhibition) at 1uM” value is 11.1%.
Regarding `Cc1cc(C)cc(N(C(=O)CNS(=O)(=O)c2ccccc2)C(C(=O)NCc2ccccc2)c2ccc(C)o2)c1` (centres unmarked), the “hERG current change (%, negative = inhibition) at 1uM” value was determined as 14.4%.
`O=C(COC(=O)c1ccccc1NC(=O)c1ccco1)NCC1CCCCC1`: the “hERG current change (%, negative = inhibition) at 1uM” value is reported as 11.9%.
As for `Cc1cc(C)cc(C(=O)NC(CC(N)=O)c2ccc(N3CCCCCC3)c([N+](=O)[O-])c2)c1` (centres unmarked), the “hERG current change (%, negative = inhibition) at 1uM” value is reported as 16%.
Next, `C/C=C(\C)C(=O)NCCN1C2=NC[C@H](C(C)C)N2C[C@H]1Cc1ccc(O)cc1`: 29.8%.
For `Cc1cc(N2CCCC2)n2nc(C)nc2n1`, the “hERG current change (%, negative = inhibition) at 1uM” value amounted to 4.06%.
For `O=C(NC1CCCCCCC1)c1cc(F)c(F)cc1Cl`, the “hERG current change (%, negative = inhibition) at 1uM” value came out at 4.43%.
`CS(=O)(=O)c1cccc(C(=O)Nc2ccc3c(c2)OCCCO3)c1`: the “hERG current change (%, negative = inhibition) at 1uM” value is listed as 16.4%.
In the case of `Cc1cccc(NC(=O)c2cccc(N3C(=O)C4CCC(C)CC4C3=O)c2)c1C` (centres unmarked), the “hERG current change (%, negative = inhibition) at 1uM” value worked out at 9.05%.
Take `CCOC(=O)CC1CCCCN1C(=O)CCCn1nnnc1CN1CCOCC1` (centres unmarked): the “hERG current change (%, negative = inhibition) at 1uM” value came to 16.2%.
`COc1ccc(-c2ccc(C(=O)C3CC3)cc2)cc1`: the “hERG current change (%, negative = inhibition) at 1uM” value is 14.5%.
Next, `COc1cc(C)ccc1N(CCCN1C(=O)c2cccc3cccc(c23)C1=O)C(=O)c1cccs1`: -3.71%; `O=C(c1cc(-c2cccnc2)nc2ccc(Br)cc12)N1CCN(c2ncccn2)CC1`: 6.94%; `CCC(C)Nc1cc(C)nc2ncnn12` (centres unmarked): 33.9%.
On to `CC(=O)Nc1ccc(NC(=O)COc2cccc3c2OC(C)(C)C3)cc1`, for which the “hERG current change (%, negative = inhibition) at 1uM” value amounted to 5.21%.
On to `CCCCn1c(SCc2ccccn2)nc2c1c(=O)n(C)c(=O)n2C`, for which the “hERG current change (%, negative = inhibition) at 1uM” value was determined as 2.76%.
As to `Cc1sc(N2C(=O)C3C4C=CC(C4)C3C2=O)c(C#N)c1C` (centres unmarked), the “hERG current change (%, negative = inhibition) at 1uM” value was 4.76%.
As for `CN(C)C=C1C(=O)c2ccccc2C1=O`, the figure is 11.5%; as for `N#Cc1c(SCC(=O)OCc2ccccc2)nsc1SCC(=O)OCc1ccccc1`, 7.73%.
For the compound `O=C(COc1ccc(Br)cc1CO)Nc1ccc(F)cc1`, the “hERG current change (%, negative = inhibition) at 1uM” value was found to be 5.08%.
In the case of `COc1cc(/C=N/OCC(=O)NC2CCS(=O)(=O)C2)ccc1OC(F)F` (centres unmarked), the “hERG current change (%, negative = inhibition) at 1uM” value is 3.92%.
As for `O=C(CCC(=O)N1CCOc2ccc(Cl)cc21)NCc1ccccc1`, the figure is 7.62%; as for `CCCN(CCC)S(=O)(=O)c1ccc(C(=O)Nc2nnc(-c3cc(OC)cc(OC)c3)o2)cc1`, 5.23%; as for `O=C(NCC(=O)N1CCCC(C(F)(F)F)C1)c1ccc(Oc2ccccc2)cc1` (centres unmarked), 10%.
Turning to `O=C(CSc1nnc(Cc2cc(=O)[nH]c(=O)[nH]2)n1-c1ccc(F)cc1)N1CCCCC1`, the “hERG current change (%, negative = inhibition) at 1uM” value came out at 12.5%.
Turning to `O=C(Cc1ccc(Cl)cc1)Nc1ccc(S(=O)(=O)Nc2ncccn2)cc1`, the “hERG current change (%, negative = inhibition) at 1uM” value worked out at 13.9%.
Take `COc1ccc(-c2nnc(SC3CCOC3=O)n2C2CCCCC2)cc1OC` (centres unmarked): the “hERG current change (%, negative = inhibition) at 1uM” value was found to be 1.55%.
Take `O=c1[nH]c2cc3c(cc2cc1CN(CCCO)C(=S)NCc1ccco1)OCO3`: the “hERG current change (%, negative = inhibition) at 1uM” value is on record as 3.28%.
In the case of `CCc1ccc(NS(=O)(=O)c2cccc3nsnc23)cc1`, the “hERG current change (%, negative = inhibition) at 1uM” value was found to be 15.6%.
Next, `COc1ccc(N2CCN(S(=O)(=O)CCNC(=O)c3ccc(Br)o3)CC2)cc1`: 15.1%.
Take `N#CC1=C(Nc2ccccc2)SC=C(c2ccc(Br)cc2)N=C1N1CCOCC1`: the “hERG current change (%, negative = inhibition) at 1uM” value was -12.4%.
For `Cc1nc(C)c(-c2ccc(SCc3cccc(F)c3)nn2)s1`, the “hERG current change (%, negative = inhibition) at 1uM” value is listed as 3.24%.
As for `COc1cc2c(cc1NC(=O)COC(=O)CNS(=O)(=O)c1ccc(C)cc1)oc1ccccc12`, the figure is 3.5%.
Regarding `Cc1ccccc1OCc1nnc(SCc2cc(=O)[nH]c3ccccc23)o1`, the “hERG current change (%, negative = inhibition) at 1uM” value was 11.1%.
In the case of `CC(=O)c1c(N2CCN(Cc3ccccc3)CC2)[nH]c(-c2ccccc2)nc1=S`, the “hERG current change (%, negative = inhibition) at 1uM” value turned out to be 0.636%.
Regarding `CN(C)c1ccc(C(=O)OCC(=O)NCCCc2ccccc2)cc1`, the “hERG current change (%, negative = inhibition) at 1uM” value is listed as 9.86%.
Turning to `CC(C)(C)C1CCc2c(sc3ncn(N)c(=N)c23)C1` (centres unmarked), the “hERG current change (%, negative = inhibition) at 1uM” value is recorded as -5.75%.
In the case of `COc1ccc(N2C(=S)NC3CS(=O)(=O)CC32)cc1` (centres unmarked), the “hERG current change (%, negative = inhibition) at 1uM” value is on record as 13.5%.
With `CN(C)CCCSc1nc2ccccc2s1.Cl`, the “hERG current change (%, negative = inhibition) at 1uM” value is given as 14.1%.
`CCCCc1ccc(NS(=O)(=O)c2cccc(C(=O)N3CCCN(C)CC3)c2)cc1`: the “hERG current change (%, negative = inhibition) at 1uM” value was 0.134%.
`Oc1ccc(CNc2ccccc2)c2cccnc12`: the “hERG current change (%, negative = inhibition) at 1uM” value was found to be 17.5%.
As for `O=C(CCC(=O)c1ccc(F)cc1)Nc1cc(Cl)cc(Cl)c1`, the “hERG current change (%, negative = inhibition) at 1uM” value was 14.6%.
With `CCc1cc(=O)oc2cc(C)cc(OCC(=O)NCc3ccncc3)c12`, the “hERG current change (%, negative = inhibition) at 1uM” value is on record as -8.01%.
As for `O=C1C2CC=CCC2C(=O)N1c1n[nH]c(CCc2ccccc2)n1` (centres unmarked), the figure is 4.37%; as for `Cc1nn(-c2ccccc2)c(Cl)c1/C=N/NC(=O)OC(C)(C)C`, 16.2%.
On to `COc1ccc(CNC(=O)CCSc2ccc(F)cc2)cc1OC`, for which the “hERG current change (%, negative = inhibition) at 1uM” value amounted to 8.33%.
As to `CCC(=NCc1cccnc1)c1c(O)n(-c2ccccc2C)c(=O)[nH]c1=O`, the “hERG current change (%, negative = inhibition) at 1uM” value was 11.9%.
As for `COc1ccc(Oc2c(C)nc(SCC(=O)c3ccc(Cl)cc3)[nH]c2=O)cc1`, the “hERG current change (%, negative = inhibition) at 1uM” value is reported as 13.8%.
With `Cc1ccc(OCC(=O)NC2=NCCS2)cc1`, the “hERG current change (%, negative = inhibition) at 1uM” value is 12.2%.
For the compound `O=C(CCl)Nc1ccc(-c2ccccc2)cc1`, the “hERG current change (%, negative = inhibition) at 1uM” value amounted to 13.7%.
In the case of `Cc1nn(C)c(C)c1S(=O)(=O)N(CC(=O)NCCCN1CCC(C)CC1)c1ccc(C(C)C)cc1`, the “hERG current change (%, negative = inhibition) at 1uM” value is given as -19.5%.
Regarding `Cc1ccc(C)c(N2CCN(S(=O)(=O)c3ccc4[nH]c(=O)ccc4c3)CC2)c1`, the “hERG current change (%, negative = inhibition) at 1uM” value was 9.9%.
Take `Cc1c(NC(=O)c2cc(-n3cnnc3)ccc2Cl)cccc1-c1nc2ccccc2s1`: the “hERG current change (%, negative = inhibition) at 1uM” value is given as -9.7%.
Next, `COc1ccc(CNc2ncnc(N)n2)cc1.Cl`: -1.41%.
